Results reported in PubChem BioAssay AID504339 (National Center for Advancing Translational Sciences (NCATS), 2011).
Several values for one entry are separate records, joined by “and”; a condition that tells them apart may be missing. Identical values can stand only once. About 17,000 (4.4%) of roughly 390,000 compounds were called active. Inconclusive means that the source gave no clear call. Such entries were picked first, then a sample of the others. Calls follow the shape of the dose curve; as a rule, active = well fitted inhibition curve with a large enough effect; inconclusive = small, poorly fitted or top-dose-only effect; inactive = no such curve, though single readings can be large or run the other way. Where the call is inconclusive, the potency comes from a doubtful curve fit. More than one record can exist for a structure, and the calls need not agree.

Biological target: Lysine-specific demethylase 4A (Homo sapiens) (UniProt O75164)
Assay: qHTS Assay for Inhibitors of JMJD2A-Tudor Domain; also: nearly all actives have a fitted effect of over 50% in size
Conditions: AlphaScreen JMJD2A-Tudor / H3K4me3 peptide binding; series mostly up to 114 µM
Potency is read from the fitted curve at half-maximal effect; tags tell the direction and shape of the fitted curve.

Chain of UniProt O75164 (O75164 whole entry, looked up, the tested form may be a part): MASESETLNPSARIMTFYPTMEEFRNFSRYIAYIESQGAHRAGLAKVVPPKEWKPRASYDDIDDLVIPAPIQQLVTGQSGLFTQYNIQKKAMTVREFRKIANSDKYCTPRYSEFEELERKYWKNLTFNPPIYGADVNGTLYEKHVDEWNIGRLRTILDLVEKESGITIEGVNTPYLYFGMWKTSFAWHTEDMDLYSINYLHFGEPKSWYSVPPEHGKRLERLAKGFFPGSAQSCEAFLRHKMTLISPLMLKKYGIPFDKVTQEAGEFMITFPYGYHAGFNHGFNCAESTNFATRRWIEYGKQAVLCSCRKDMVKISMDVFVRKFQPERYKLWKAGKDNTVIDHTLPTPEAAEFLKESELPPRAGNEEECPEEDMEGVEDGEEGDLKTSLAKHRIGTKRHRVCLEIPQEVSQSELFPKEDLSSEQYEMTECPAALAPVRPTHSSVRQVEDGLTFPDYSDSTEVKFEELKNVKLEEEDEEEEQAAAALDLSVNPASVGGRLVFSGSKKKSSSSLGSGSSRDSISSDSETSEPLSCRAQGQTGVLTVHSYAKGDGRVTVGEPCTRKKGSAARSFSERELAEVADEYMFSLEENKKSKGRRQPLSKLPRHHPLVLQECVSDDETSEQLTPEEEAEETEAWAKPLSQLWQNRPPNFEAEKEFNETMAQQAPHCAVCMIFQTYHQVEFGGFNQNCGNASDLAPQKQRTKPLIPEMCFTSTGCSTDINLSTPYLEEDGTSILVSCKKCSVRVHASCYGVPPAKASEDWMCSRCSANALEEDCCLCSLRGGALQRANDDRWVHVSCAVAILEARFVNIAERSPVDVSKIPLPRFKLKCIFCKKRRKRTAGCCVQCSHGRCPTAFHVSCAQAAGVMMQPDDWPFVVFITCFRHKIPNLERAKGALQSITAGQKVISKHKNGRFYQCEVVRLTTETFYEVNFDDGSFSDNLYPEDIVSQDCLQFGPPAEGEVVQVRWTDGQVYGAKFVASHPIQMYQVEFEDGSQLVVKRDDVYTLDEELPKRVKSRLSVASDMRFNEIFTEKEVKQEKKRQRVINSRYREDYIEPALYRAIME

Potency, inconclusive:
O=C(OCC#CCSc1nnc(-c2ccc([N+](=O)[O-])cc2)o1)c1cccs1 14.1 µM [inhibitor, full curve, poor fit], COc1ccc(C2=Nc3ccccc3N(CC(=O)Nc3cccc(C(C)=O)c3)C(=O)C2)cc1 50.1 µM [inhibitor, partial curve], CN1C[C@@H]2C(c3ccc(Cl)nc3)C3(c4ccc(C#N)cc4)CC2(C3)[C@H]1c1ccccc1 (stereo not given in full) 56.2 µM [inhibitor, partial curve], O=C(N/N=C/C(Br)=C/c1ccccc1)c1ccc([N+](=O)[O-])cc1 11.2 µM [inhibitor, full curve, poor fit], CCCc1[nH]n(-c2nc3ccccc3s2)c(=O)c1C=NCC(C)C 50.1 µM [inhibitor, partial curve], Cc1n[nH]c(=O)nc1N/N=C/c1ccco1 2.24 µM [inhibitor, full curve, poor fit], CCn1cc(/C=C(\NC(=O)c2ccc(OC)c(OC)c2)C(=O)NCCCn2ccnc2)c2ccccc21 44.7 µM [inhibitor, partial curve], COc1ccc(N2CCN(CC(O)COCc3ccccc3)CC2)cc1 (stereo not given) 89.1 µM [inhibitor, single point], CCCN1CCC(=NNc2ccc(S(=O)(=O)N(CC)CC)cc2[N+](=O)[O-])CC1 44.7 µM [inhibitor, partial curve], N#C/C(=C\c1ccc(O)c(O)c1)C(=O)NCCc1ccccc1 22.4 µM [inhibitor, full curve], COc1ccc(C(=O)c2ccc(N(C)C)cc2)c2ccccc12 44.7 µM [inhibitor, partial curve], COc1cccc(OCC(=O)NNC(=S)Nc2ccc(Cl)cc2Cl)c1 50.1 µM [inhibitor, partial curve], CN(C)S(=O)(=O)n1cc(/C=C(\NC(=O)c2ccccc2F)C(=O)NCCCn2ccnc2)c2ccccc21 39.8 µM [inhibitor, full curve] and 44.7 µM [inhibitor, full curve, poor fit], CCn1c(COc2ccccc2)nnc1SCC(=O)c1cccc([N+](=O)[O-])c1 63.1 µM [inhibitor, partial curve, poor fit], Cc1ccc2nc(/C(C#N)=C/c3cccc(Br)c3)[nH]c2c1 44.7 µM [inhibitor, partial curve], CC(C)(CNC(=S)NCCc1ccccc1)CNC(=S)NCCc1ccccc1 28.2 µM [inhibitor, partial curve], Cc1cc2ccccn2c1C(=O)c1cccc(S(=O)(=O)N2CCOCC2)c1 56.2 µM [inhibitor, partial curve], O=C(COC(=O)C1=Cc2ccccc2OC1)NCc1ccc(F)cc1 28.2 µM [inhibitor, single point], O=C(O)c1cc(N/N=C/C=C/c2ccccc2)ccc1Cl 112 µM [inhibitor, partial curve, poor fit], CN(c1ccccc1)S(=O)(=O)c1cccc(C(=O)Nc2nn[nH]n2)c1 12.6 µM [inhibitor, full curve, poor fit], COc1ccc2cc(C(=O)/C=C/c3cc(OC)c(O)c(OC)c3)ccc2c1 50.1 µM [inhibitor, partial curve], Cc1nc(NNC(=O)c2ccc([N+](=O)[O-])cc2)cc(-c2ccccc2)n1 63.1 µM [inhibitor, partial curve, poor fit], COc1ccc(N2C(=O)C3C(C2=O)C(C(=O)c2ccc(Cl)cc2)N2CCCC32)cc1 (stereo not given) 44.7 µM [inhibitor, partial curve], CCOC(=O)c1c(S(=O)(=O)N2CCC(C(=O)N3CCN(c4cccc(C)c4C)CC3)CC2)c(C)n(C)c1C 50.1 µM [inhibitor, partial curve], O=C(Nc1ccccc1)Nc1ccc2ocnc2c1 56.2 µM [inhibitor, partial curve], O=C(CSc1nnc(COc2ccc(Cl)cc2)o1)Nc1ccccc1 14.1 µM [inhibitor, full curve, poor fit], COc1cc(C(=O)NCc2ccc3c(c2)cc(C)n3C)cc(OC)c1OC 56.2 µM [inhibitor, partial curve], Cc1c(NC(=O)/C(C#N)=C/c2ccc(-c3ccc(Cl)cc3)o2)c(=O)n(-c2ccccc2)n1C 22.4 µM [inhibitor, full curve], O=S(=O)(Nc1cccc(Cl)c1)c1ccc2[nH]c3c(c2c1)CCCCCC3 50.1 µM [inhibitor, partial curve], COc1ccc(N2CCN(C(=O)Cc3coc4ccc(C)cc34)CC2)cc1 50.1 µM [inhibitor, partial curve], CCCCCCN1C=CC=C/C1=C\C=C(C#N)C#N 50.1 µM [inhibitor, partial curve], Cc1ccc(-c2[nH]nc3c2C(c2ccc(OC(=O)N4CCOCC4)cc2)C(C#N)=C(N)O3)cc1 (stereo not given) 50.1 µM [inhibitor, partial curve], O=c1c2cn[nH]c2nc(SCc2ccc3c(c2)OCCO3)n1-c1ccccc1 79.4 µM [inhibitor, partial curve], CCOC(=O)C1=C(C)NC2(O)c3ccccc3C(=O)C12O (stereo not given) 50.1 µM [inhibitor, partial curve], Cc1ccc(CC2(OCCN(C)C)CCC(C(C)(C)C)CC2)cc1 (stereo not given) 56.2 µM [inhibitor, partial curve], CCCCN(CCCNC(=O)CN1N=C(c2ccccc2)CCC1=O)c1ccccc1 15.8 µM [inhibitor, full curve]

Potency, inactive:
O=C(OCC(=O)N1CCCc2ccccc21)c1ccccc1NCCO, CC(C)(C)OC(=O)N1CCC(c2c(C(=O)N3CCN(c4ncccn4)CC3)cnn2-c2ccc(F)cc2)CC1, COc1cc([N+](=O)[O-])ccc1NC(=O)N1CCC2(CC1)Nc1cc(F)ccc1-n1cccc12, CN=C1N(C)C[C@@H]2[C@@H]3C(=O)N(C)C(=O)[C@@H]3[C@](C)(C(=O)OC)N12, Nc1c(C(=O)Nc2cccc(C(=O)O)c2)sc2nc3c(cc12)CCCC3, Cc1nc2c(cc(Oc3ccc(S(=O)(=O)N4CCOCC4)cn3)c3ccsc32)s1, COc1cc(C(=O)Nc2ccc(N3CCOCC3)cc2)ccc1OCc1c(C)noc1C, Cc1ccc(C(=O)Nc2cc(Cl)ccc2-n2cncn2)o1, COc1ccc(/C=C2\CCCC3C2=NN(C(=O)CSc2ncn[nH]2)C3c2ccc(OC)cc2)cc1 (stereo not given), COc1cc(CC(=O)OCC(=O)NCc2cccs2)cc(OC)c1OC, Cc1cccc(NC(=O)CN(CC2CCCO2)C(=O)c2oc3ccccc3c2C)c1C (stereo not given), O=C(NCc1ccccc1Cl)C1CCN(S(=O)(=O)c2ccc3c(c2)CCCN3C(=O)C2CCC2)CC1, Cc1cc(C)cc(Oc2coc3c(CN4CCN(C)CC4)c(O)ccc3c2=O)c1, COc1ccc([C@H]2CC(=O)C=C(c3ccc(C)cc3)C2)cc1, CCCN(CCC)CCCNC(=O)c1cc2c(=O)oc3ccc(C)cc3c2s1, CCc1ccc(CNC(=O)c2ccc(CSc3nc4ccncc4n3Cc3ccc(OC)cc3)cc2)cc1, CCN(CC)C(=O)C1=C(C)Nc2nc3ccccc3n2C1c1ccc(Br)cc1 (stereo not given), CC(=O)c1ccccc1NC(=O)COC(=O)c1ccccc1NC(=O)c1ccccc1, Cc1ccc(-c2ccc(CCC(=O)O)n2C(C)C)cc1, Cc1cc(-c2ccc(C)c(S(=O)(=O)N3CCCC(C)C3)c2)on1 (stereo not given), Cc1ccc2nsnc2c1NS(=O)(=O)c1c(C)ccc2nsnc12

Potency, active:
COc1ccc(CNS(=O)(=O)c2csc(C(N)=O)c2)cc1OC 31.6 µM, COC(=O)c1ccc(/C=C/C(=O)c2ccc(OC)cc2)cc1 100 µM, CN(C)c1ccc(N=Nc2ccccc2C(=O)OCC(=O)Nc2ccccc2C(F)(F)F)cc1 7.08 µM, CCC(CO)Oc1cc(NCc2ccc(F)cc2)c2ncn(C(C)C)c2c1 (stereo not given) 56.2 µM, CC(=O)c1sc2nsc(SCCN3CCCC3)c2c1N 89.1 µM, Cc1ccc(Cl)c(OCCN2CCCC(C)C2)c1 (stereo not given) 17.8 µM, COc1ccc(Nc2c(-c3ccc(Cl)cc3)nc3cnccn23)cc1OC 56.2 µM, C(=NN1CCCCCC1)c1cccc2ccccc12 50.1 µM, Cc1nc2sccn2c1-c1nc(-c2cc3ccccc3o2)cs1 25.1 µM, COc1cc(C=NNc2ccc(S(=O)(=O)Nc3ccccc3C(=O)O)cc2[N+](=O)[O-])ccc1O 25.1 µM, O=C1NN(c2ccccc2)C(=O)/C1=C/c1ccc(-c2ccc(C(=O)O)cc2)o1 56.2 µM, O=C(c1cccnc1)N1C2C=CC(C2)C1(C(F)(F)F)C(F)(F)F (stereo not given) 70.8 µM, N#C/C(=C\c1ccc(-c2ccccc2C(=O)O)o1)c1nc2ccccc2[nH]1 31.6 µM and 20 µM
